Reference: patent publication US20080038257A1 (AVEO PHARMACEUTICALS, published 2008)

What was measured:
[1] = molecular target: T1, recombinant human HGF (R&D Systems, Catalog No. 294-HGN-025) (human, UniProt P14210 32-728); assay: cell-based or functional assay
[2] = molecular target: T1, recombinant human HGF (R&D Systems, …); assay: cell-based or functional assay; remark: listed apart in the source

T1 sequence (P14210 32-728 limits assumed): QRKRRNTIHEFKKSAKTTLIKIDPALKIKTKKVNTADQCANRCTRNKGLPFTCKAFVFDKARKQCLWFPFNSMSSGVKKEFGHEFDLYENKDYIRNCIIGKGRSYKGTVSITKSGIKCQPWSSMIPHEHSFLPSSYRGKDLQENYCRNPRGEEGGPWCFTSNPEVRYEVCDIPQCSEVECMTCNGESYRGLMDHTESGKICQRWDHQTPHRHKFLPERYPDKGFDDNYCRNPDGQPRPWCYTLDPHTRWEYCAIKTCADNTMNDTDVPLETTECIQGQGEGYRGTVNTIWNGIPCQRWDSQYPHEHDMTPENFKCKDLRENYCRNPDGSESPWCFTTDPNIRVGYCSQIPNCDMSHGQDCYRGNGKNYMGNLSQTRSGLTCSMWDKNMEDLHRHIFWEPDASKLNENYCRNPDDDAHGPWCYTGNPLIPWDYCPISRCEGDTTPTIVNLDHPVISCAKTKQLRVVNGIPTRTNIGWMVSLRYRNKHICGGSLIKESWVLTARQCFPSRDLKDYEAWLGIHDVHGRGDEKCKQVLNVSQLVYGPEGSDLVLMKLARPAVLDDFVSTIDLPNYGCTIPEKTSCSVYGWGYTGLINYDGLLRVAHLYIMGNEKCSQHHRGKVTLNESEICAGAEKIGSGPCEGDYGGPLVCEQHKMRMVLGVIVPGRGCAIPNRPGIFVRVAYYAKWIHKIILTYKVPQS

B1: sh2B8-12 (G1m(3)) = hu2B8 Hv5-51.1 + IgG1 constant G1m(3) allele 2 plus hu2B8 Kv3-15.1 + Kappa Km(3) allele 2 (antibody)
heavy: EVQLVQSGAEVKKPGESLKISCKGSGYSFTTYWMHWVRQMPGKGLEWMGEINPTNGHTNYNPSFQGQVTISADKSISTAYLQWSSLKASDTAMYYCARNYVGSIFDYWGQGTLVTVSSASTKGPSVFPLAPSSKSTSGGTAALGCLVKDYFPEPVTVSWNSGALTSGVHTFPAVLQSSGLYSLSSVVTVPSSSLGTQTYICNVNHKPSNTKVDKRV[human IgG1 Fc not printed]
light: EIVMTQSPATLSVSPGERATLSCKASENVVSYVSWYQQKPGQAPRLLIYGASNRNTGIPARFSGSGSGTEFTLTISSLQSEDFAVYYCGQSYNYPYTFGQGTKLEIKRTVAAPSVFIFPPSDEQLKSGTASVVCLLNNFYPREAKVQWKVDNALQSGNSQESVTEQDSKDSTYSLSSTLTLSKADYEKHKVYACEVTHQGLSSPVTKSFNRGEC
IC50 (nM), HGF stimulated BrdU incorporation in 4MBr-5 cells [1]: 0.81 nM | HGF-stimulated c-Met phosphorylation in PC-3 cells (assay of Example 9), Average of Two Trials [2]: 0.81 nM
